Consider 75 compounds from PubChem BioAssay (NCI).

Where “and” joins values, the source holds several entries; their conditions need not be identical. Equal values may be shown once.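 96-well plates; 48 h exposure; 5 concentrations. Endpoints by linear interpolation between flanking doses. Not reached: highest tested concentration assigned. At the GI50, growth is halved. TGI: total growth inhibition.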

The subject of this assay is NCI-H322M lung. Nature of the assay: NCI anticancer screen, dose series, 48 h.
`Cc1ccc2c(c1)-c1c(C#N)c(N)nc(-c3ccc(Cl)cc3)c1CCS2(=O)=O`: the TGI was more than 100 µM.
As to `COc1ccc(Cn2c3c(cc(OS(=O)(=O)C(F)(F)F)c2=O)Cc2ccccc2-3)cc1`, the GI50 is 6.18 µM; the TGI is 50 µM and > 100 µM.
Consider `N.N.N.N.O=C([O-])C(Cl)Cl.O=C([O-])C(Cl)Cl.[Co+3].[O-][Cl+3]([O-])([O-])[O-]`, for which the GI50 is more than 100 µM and the TGI is more than 100 µM.
`CC[C@]1(O)C(=O)OCc2c1cc1n(c2=O)Cc2cc3c(N)cccc3nc2-1` gave a TGI of more than 100 µM.
`NC(=O)c1csc(C2(O)COC(CO)C2O)n1` (configuration not stated) registered a TGI of more than 100 µM.
Regarding `O=C1C(c2ccccc2)=[N+]([O-])c2ccccc21`, the TGI worked out at 39.7 µM.
`CO[C@H]1SC[C@H](OC(C)=O)[C@H](OC(C)=O)[C@H]1OC(C)=O` registered a TGI of more than 100 µM.
The same measure, in the same setting: the same measure for `COC(=O)/C(=N\NC(C)(C)C)C(C(=O)C(=O)Nc1cc(C)ccc1C)c1nc2ccccc2[nH]c1=O` (configuration not stated): more than 100 µM; for `COc1ccc(-c2oc3c(OC)c(OC)c(OC)c(OC)c3c(=O)c2OC)cc1OC`: more than 100 µM.
Take `CC[PH+](CC)CC.O=COC1OC([S-])C(OC=O)C(OC=O)C1OC=O.[Au+]` (configuration not stated): the GI50 is 1.7 µM and the TGI worked out at 3.07 µM.
The like results for `Cc1sc2nc3c4ccccc4c(NCCCN(C)C)nn3c(=O)c2c1C` were, in that order, 13 µM and 26.8 µM.
Regarding `COC(=O)C1CCc2sc3ncnc(Nc4cn[nH]c4C(=O)Nc4ccc(CN5CCN(C)CC5)cc4)c3c21` (configuration not stated), the GI50 was 0.483 µM and the TGI is more than 100 µM.
Compound `CCOC(=O)c1cc(/C=C/C(C)=C/C(=O)OC)oc1C` came in with a TGI of more than 100 µM.
For `CSc1cc(=O)n2c3ccccc3c3ccnc1c32`, the TGI was more than 100 µM.
In the case of `O=c1[nH]c2nc3ccccc3nc2[nH]c1=O`, the TGI was more than 100 µM.
`Nc1ccc(C(=O)CC(N)C(=O)O)cc1O` (configuration not stated) had a TGI of more than 100 µM.
For the compound `COc1ccc(-c2c3c(n(C4OC(CO)C(O)C(O)C4O)c(=S)c2C#N)CCC3)cc1` (configuration not stated), the TGI is more than 100 µM.
On the same count and under the same terms, the same measure for `CC(C)N1CC2CC(CN(C(=O)c3ccccc3)C2)C1`: more than 100 µM.
Same read-out and setting: the same measure for `Cc1ccc(C(=O)N/N=C(\N=Nc2ccccc2)c2ccc(N(C)C)cc2)cc1`: more than 100 µM; for `Cc1cc2ncn(C3CCCCO3)c2cc1C` (configuration not stated): more than 100 µM.
Regarding `Cn1c2c(c3ccc(Cl)c(Cl)c31)C(C#N)C1(CCNCC1)NC2=O` (configuration not stated), the GI50 is 2.7 µM and the TGI worked out at 13.4 µM.
For `N#C/C(=C/n1c(=S)[nH]c2ccc([N+](=O)[O-])cc21)C(N)=O`, the TGI is more than 100 µM.
For `COC(=O)C(=O)C(C(=O)C(=O)Nc1cccc(C(C)=O)c1)c1nc2ccccc2[nH]c1=O` (configuration not stated), the TGI is more than 100 µM.
`COc1cc(C(c2c(O)c3ccccc3oc2=O)c2c(O)c3ccccc3oc2=O)cc(Br)c1O` showed a TGI of 33.8 µM.
On the same count and under the same terms, the same measure for `C/C(=N\N(c1ccccc1)c1ccccc1)c1c(O)cc(C)oc1=O`: more than 100 µM; for `CCC1=NC(CO)[C@H](c2ccccc2)O1` (some centres not stated): more than 100 µM.
Take `OCCNc1ncnc2c1ncn2Cc1cccc(COc2cccc(OCc3cccc(Cn4cnc5c(NCCO)ncnc54)c3)c2)c1`: the GI50 was 18.2 µM and the TGI came out at 35.8 µM.
With `NC(=S)NNc1c([N+](=O)[O-])cnn(-c2ccccc2)c1=O`, the TGI is 31.8 µM.
Take `O=C1c2cc(Cl)ccc2-c2c1c1ccc([N+](=O)[O-])cc1c(=O)n2CCCBr`: the GI50 is 25.9 µM and the TGI was more than 100 µM.
The compound `O=C1C=CC(=O)N1n1c(-c2ccccc2)n[nH]c1=O` yielded a TGI of more than 100 µM.
The same measure, in the same setting: in the case of `CCCCC1=C(C(=O)N2CCOCC2)C2(OCCO2)C1=O` it was more than 100 µM.
For the compound `CCC[n+]1cc2cc(OC)c(OC)cc2c2c1-c1cc3c(cc1C2)OCO3`, the GI50 is 10.6 µM and the TGI worked out at 39.6 µM.
As for `COC(=O)C1(CCCCCBr)CCCCCCCCCCC1=O` (configuration not stated), the TGI worked out at 73.5 µM.
Consider `COc1cc2cc(C(=O)N3C[C@H](CCl)c4c3cc(N)c3ccccc43)[nH]c2c(OC)c1OC`, for which the GI50 is 0.0122 µM and the TGI was 11.5 µM.
`CC1=NN(c2nc(N)nc(-c3sccc3N)n2)C(C)(C)C1`: the TGI was more than 100 µM.
Compound `CN(C)CCCNC(=O)c1cc(NC(=O)c2cc(NC(=O)CCCn3c4ccccc4c4ccccc43)cn2C)cn1C` returned a TGI of more than 56.6 µM.
The compound `O=C(c1ccncc1)n1nc(-c2ccccc2)c(N=Nc2ccccc2[N+](=O)[O-])c1-c1ccccc1` yielded a TGI of 77.9 µM.
As to `CC(=O)OCC(OC(C)=O)C(OC(C)=O)C(OC(C)=O)C(=O)CNn1c(-c2ccccc2Cl)nc2ccccc2c1=O` (configuration not stated), the TGI is more than 100 µM.
In the case of `C[C@]12CCC(=O)[C@@H](CCC3=CC(=O)C=CC3=O)[C@@H]1CCC2=O`, the TGI was more than 100 µM.
Consider `CC(=O)OCC1OC(n2c(-c3ccccc3)c(N=Nc3ccccc3)c(C)c(C#N)c2=S)C(OC(C)=O)C(OC(C)=O)C1OC(C)=O` (configuration not stated), for which the TGI was more than 100 µM.
The compound `CS(=O)(=O)CSCSSCS(C)(=O)=O` registered a TGI of more than 100 µM.
Regarding `Fc1cc2[nH]ncc2c2c3c(c(-c4cn[nH]c4C(F)(F)F)nc12)C1CCC3C1` (configuration not stated), the GI50 was 1.4 µM and the TGI was 4.69 µM.
On to `CCn1c2ccc(C(=O)CCCN3CCCCC3)cc2c2cc(C(=O)CCCN3CCCCC3)ccc21`, for which the TGI amounted to 18.5 µM.
On the same count and under the same terms, the same measure for `Cc1c(CN2CCN(C)CC2)c(CN2CCN(C)CC2)c(C)n1-c1ccc(Cl)cc1`: more than 100 µM; for `C=C1C(OC2O[C@@H]3O[C@@]4(C)CC[C@H]5[C@H](C)CC[C@@H](C2=C)[C@@]35O4)O[C@@H]2O[C@@]3(C)CC[C@H]4[C@H](C)CC[C@@H]1[C@@]24O3` (some centres not stated): more than 50 µM.
Regarding `COc1cc(-c2cn(-c3ccc(Cl)c(Cl)c3)c(=O)n2C(C)=O)cc(OC)c1OC`, the GI50 is 16.6 µM and the TGI turned out to be 41.3 µM.
With `O=C(CCc1cc(O)cc(O)c1)NCCCNC(=O)CCc1cc(O)cc(O)c1`, the TGI is more than 100 µM.
Turning to `CN(C)CC1CCC/C1=N\O` (configuration not stated), the TGI is more than 100 µM.
Take `O=C1NC2CCCCC2N=C1CC(=O)c1ccc(Br)cc1` (configuration not stated): the TGI was more than 100 µM.
In the case of `NCCCCNc1ccc2c(=O)[nH][nH]c(=O)c2c1`, the TGI is more than 100 µM.
On the same count and under the same terms, the same measure for `OCCOCn1nncc1Cn1ncc2c(SCc3ccccc3)ncnc21`: more than 100 µM; for `Cc1cc(S(=O)(=O)/N=C(/C(=C=[N-])C#N)[n+]2ccc(N(C)C)cc2)c(SCC(=O)O)cc1Cl`: more than 100 µM.
For `COc1cc(C(=O)Nc2cc3c(cc2Oc2cc(C)cc(C)c2)C(=O)N(C)[C@@H](CC(=O)N(C)O)C(=O)N3)c(Br)c(OC)c1OC`, the GI50 is less than 0.00333 µM and the TGI is 0.0148 µM.
Take `CCn1c(-c2nonc2N)nc2c(C#CC(C)(C)O)nc(OCCNC)cc21`: the GI50 is 9.51 µM and the TGI is more than 25 µM.
Take `CCOc1ccc(Nc2nc(N)nc(N)c2N)cc1`: the TGI was more than 100 µM.
On the same count and under the same terms, the same measure for `COc1cccc2c1C(=O)c1c(O)c3c(c(O)c1C2=O)C[C@H](O)C[C@@H]3OC1CC(N)C(O)C(C)O1` (some centres not stated): 11.7 µM; for `CCOP(=O)(OCC)OC(C#N)c1ccc(-c2ccccc2)cc1` (configuration not stated): more than 100 µM.
`CCOc1cc(/C=N\Nc2nnc(C)n2N)c(C)cc1N(CCCl)CCCl`: the GI50 was 2.77 µM and the TGI is more than 100 µM.
With `Cc1cc(S(=O)(=O)Nc2n[nH]c(-c3ccccn3)n2)c(S)cc1Cl`, the TGI stood at 66.4 µM.
On the same count and under the same terms, the same measure for `OC1(c2ccccc2)OC(C#Cc2ccccc2)(c2ccccc2)c2ccccc21` (configuration not stated): 3.52 µM.
Turning to `CC[O-].CC[O-].O=S(=O)([O-])c1ccc([O-])c2ncccc12.O=S(=O)([O-])c1ccc([O-])c2ncccc12.[Ti+4]`, the GI50 is 27 µM and the TGI is more than 100 µM.
For the compound `CC(C)C(CC(=O)OCC(CO)OC(=O)CC(C(C)C)C(C)C)C(C)C` (configuration not stated), the TGI is 27.8 µM.
Same read-out and setting: in the case of `COc1ccc2nc(/C(N)=C\C#N)ccc2c1` it was more than 100 µM.
On to `Cn1c(=O)c(-c2ccccc2)c(O)c2ccccc21`, for which the TGI is more than 100 µM.
Regarding `CC(C)C(=O)C(C)(C)CCc1ccccn1`, the TGI is more than 100 µM.
The same measure, in the same setting: in the case of `CCCCSc1nsc(N(C(=O)c2ccccc2)C(=O)c2ccccc2)n1` it was more than 100 µM.
`Cc1ccc(-c2cc(-c3ccco3)c(C#N)c(=O)n2C2OC(OC(=O)c3ccccc3)C(OC(=O)c3ccccc3)C2OC(=O)c2ccccc2)cc1` (configuration not stated) returned a TGI of more than 100 µM.
With `CCCCOc1ccc(OCCCCCCCCCC[N+](C)(C)C)cc1`, the TGI came out at 21.3 µM.
On to `COc1cc2ncnc(Nc3ccc(F)c(Cl)c3)c2cc1NC(=O)/C=C/CN1CCCCC1`, for which the GI50 was < 0.01 µM and 0.00449 µM; the TGI is 1.94 µM and 2.63 µM.
For the compound `CCCCN(CCCC)c1c([N+](=O)[O-])c(=O)nc2ccccn12`, the TGI amounted to 67.6 µM.
As for `N#CC1(O)CCCCCCCCCCC1`, the TGI was more than 100 µM.
Take `C1=C2C3=[N+](CCCCC3)CC2Cc2ccsc21` (configuration not stated): the TGI is more than 100 µM.
In turn, `N#C/C(C(=O)Nc1ccc(Cl)cc1)=C(/N)N1CCCC1` had a TGI of more than 100 µM.
For the compound `COc1ccc(OC2OC(CO)C(OCc3ccccc3)C(OCc3ccccc3)C2OCc2ccccc2)cc1` (configuration not stated), the TGI was more than 100 µM.
`COC(=O)C(CC(=O)Nc1ccc(C)cc1)C(=O)C(=O)Nc1ccccc1C(C)C` (configuration not stated): the TGI is more than 100 µM.
